This is one part of the list.
These sequences were tested against T1, OsWOX13 (Oryza sativa, UniProt Q5QMM3 1-267) (assay: protein-binding microarray (RPBM); PBS, 2% BSA, 51.3 ng/ul salmon testes DNA, 50 uM zinc acetate, 200 nM TF, 25 C, 1 h; high values mean tight binding). Settings: protein: recombinant; tags: N-terminal polyhistidine and DsRed monomer fusion (pET32a); label: CyDye5-dUTP incorporated in the synthesized complementary strand; 3' TTTTT single-stranded linker to array surface; dsDNA, one strand shown.
T1 sequence: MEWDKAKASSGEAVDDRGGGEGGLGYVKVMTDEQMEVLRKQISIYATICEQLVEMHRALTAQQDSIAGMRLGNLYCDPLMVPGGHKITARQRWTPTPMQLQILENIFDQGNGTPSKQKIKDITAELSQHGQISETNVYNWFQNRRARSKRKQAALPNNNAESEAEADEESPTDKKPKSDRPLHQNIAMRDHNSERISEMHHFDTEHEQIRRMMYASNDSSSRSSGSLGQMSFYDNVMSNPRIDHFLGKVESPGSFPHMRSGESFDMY
Method in brief: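 For the binding signal, per-feature fluorescence intensity was read in arbitrary units on an Axon 4000B scanner. Before scanning, a 2% BSA-blocked custom Agilent array made double-stranded with Cy5-dUTP was washed after 1 h at 25 °C with 200 nM protein and 50 µM zinc acetate. The proteins were Ni–NTA-purified transcription factors with N-terminal polyhistidine and DsRed fusions, expressed in E. coli BL21-CodonPlus.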

**Q.** For “ATGATAGATTATTATAATCTATAAGTCAGATAACTATAATCGGAGTCACCTAGTGCAG”, which binding signal is on record?
**A.** Its binding signal is 28300 fluorescence intensity (a.u.).

**Q.** How did the binding signal turn out when “TTTTGAGCCTAATTAATCTGTCATTAGCACATGTGGGTTACGGAGTCACCTAGTGCAG” was run?
**A.** Its binding signal is 5400 fluorescence intensity (a.u.).

**Q.** Which binding signal does the source give for “TTAAATTGTATACGATAGATTTACTGAGTTGAGCACTCTCCGGAGTCACCTAGTGCAG” here?
**A.** Its binding signal is 6330 fluorescence intensity (a.u.).

**Q.** “CTTAAACAATTAATCATCATCTCATACAATTATTCCAGTCCGGAGTCACCTAGTGCAG” was tested. Which binding signal did it give?
**A.** Its binding signal is 10200 fluorescence intensity (a.u.).

**Q.** Which binding signal does the source give for “GAGAATGGTGATGAATGGGCCTATCAGAGGAAGATAATTGCGGAGTCACCTAGTGCAG” here?
**A.** The binding signal was 3250 fluorescence intensity (a.u.).

**Q.** Which binding signal does the source give for “ACATATTCCATGAATGATTGATCTCTTTTGCATTTGTTCGCGGAGTCACCTAGTGCAG” here?
**A.** Its binding signal is 9020 fluorescence intensity (a.u.).

**Q.** How did the binding signal turn out when “GTTATGAGAAACATCATGTTGATTAGGCAGCTTGACCTGACGGAGTCACCTAGTGCAG” was run?
**A.** The binding signal was 3280 fluorescence intensity (a.u.).

**Q.** Which binding signal does the source give for “GAAATCTCCATGATTTGTACTGTTCGTTCGTCATCGCGATCGGAGTCACCTAGTGCAG” here?
**A.** Its binding signal is 4290 fluorescence intensity (a.u.).

**Q.** With “TTGATCAATTATATATTATTTTAGAAAACAAAAGCGTGCACGGAGTCACCTAGTGCAG” as the sequence, how does the binding signal read?
**A.** Its binding signal is 19000 fluorescence intensity (a.u.).

**Q.** With “GATAATTAAGAAACCAAATTAGTACACCTAGCTCTGTCTGCGGAGTCACCTAGTGCAG” as the sequence, how does the binding signal read?
**A.** Its binding signal is 36100 fluorescence intensity (a.u.).

**Q.** “CTCTCCTTAATTTCTTGAATTGCTATCCGATCCTGAGCAACGGAGTCACCTAGTGCAG” was tested. Which binding signal did it give?
**A.** Its binding signal is 6820 fluorescence intensity (a.u.).

**Q.** For “TCTTATAATCACATCAAGTTTAAATTGCAACAAATAACAACGGAGTCACCTAGTGCAG”, which binding signal is on record?
**A.** Its binding signal is 6830 fluorescence intensity (a.u.).

**Q.** How did the binding signal turn out when “ATTGTTAATTTTAGATAGTATAAAGTTTCACCACCATTAACGGAGTCACCTAGTGCAG” was run?
**A.** Its binding signal is 3240 fluorescence intensity (a.u.).

**Q.** With “TCCATCTCCGGCGAGTTGATTGGCTGACTGACTGGCGGCGCGGAGTCACCTAGTGCAG” as the sequence, how does the binding signal read?
**A.** Its binding signal is 34100 fluorescence intensity (a.u.).

**Q.** With “TCTTGATGAATAATTCTATTAGGCTCTAACCAGCGGTGCACGGAGTCACCTAGTGCAG” as the sequence, how does the binding signal read?
**A.** Its binding signal is 15800 fluorescence intensity (a.u.).

**Q.** For “CAAAATCAAATTCAAATTTTGGGCAAACGATGAGGTCCTTCGGAGTCACCTAGTGCAG”, which binding signal is on record?
**A.** Its binding signal is 4350 fluorescence intensity (a.u.).

**Q.** How did the binding signal turn out when “GCTTACCAAATTTCACTGTTAACAGATACCCATGGATGGTCGGAGTCACCTAGTGCAG” was run?
**A.** Its binding signal is 7620 fluorescence intensity (a.u.).

**Q.** With “AAATATATTGTACAATTAATTAGTTAGCAGGTTTTGCACCCGGAGTCACCTAGTGCAG” as the sequence, how does the binding signal read?
**A.** Its binding signal is 12900 fluorescence intensity (a.u.).

**Q.** How did the binding signal turn out when “AAAATTGATATGTAATTATGACACACTTACGTCGGATATGCGGAGTCACCTAGTGCAG” was run?
**A.** The binding signal was 64500 fluorescence intensity (a.u.).

**Q.** “CGGAATTGAAAACCACGGATACAAAAGCATAATCAAATATCGGAGTCACCTAGTGCAG” was tested. Which binding signal did it give?
**A.** The binding signal was 3300 fluorescence intensity (a.u.).

**Q.** Which binding signal does the source give for “GTTTAGGACCTTTGATTTGTTGGTGACAGAACCCAAGGCGCGGAGTCACCTAGTGCAG” here?
**A.** Its binding signal is 6360 fluorescence intensity (a.u.).

**Q.** How did the binding signal turn out when “ATAACAAATTAGAAACTGGAGGGAGGAGTAAAATTGGAGGCGGAGTCACCTAGTGCAG” was run?
**A.** The binding signal was 6910 fluorescence intensity (a.u.).

**Q.** How did the binding signal turn out when “GAACGTGATTAAATTTCTCACCCTCACTTCGGTCAGTTGGCGGAGTCACCTAGTGCAG” was run?
**A.** Its binding signal is 39900 fluorescence intensity (a.u.).

**Q.** With “TTTTATAATTTCTCTTCTTATTATGAAGACTTGGGCCGTTCGGAGTCACCTAGTGCAG” as the sequence, how does the binding signal read?
**A.** Its binding signal is 3690 fluorescence intensity (a.u.).

**Q.** “CTGATGACGAAATTGGAGGGAGTAGATTATTAGCAATAGTCGGAGTCACCTAGTGCAG” was tested. Which binding signal did it give?
**A.** The binding signal was 6800 fluorescence intensity (a.u.).

**Q.** Which binding signal does the source give for “GATTAATTGTTGCATTTAAAATGTGGGTCATGACCGCTATCGGAGTCACCTAGTGCAG” here?
**A.** The binding signal was 26600 fluorescence intensity (a.u.).

**Q.** With “GGTAATTTTCCATGAAATGGTAGTTTGAGCATGTGGGGAACGGAGTCACCTAGTGCAG” as the sequence, how does the binding signal read?
**A.** The binding signal was 7700 fluorescence intensity (a.u.).

**Q.** “GCGTCACCATGATTACCTGGCTTTCTGGGCCAGACACGCCCGGAGTCACCTAGTGCAG” was tested. Which binding signal did it give?
**A.** The binding signal was 3350 fluorescence intensity (a.u.).

**Q.** With “ACATAGATTATAGATAATCGGATTCGTTGACATACCTCAGCGGAGTCACCTAGTGCAG” as the sequence, how does the binding signal read?
**A.** Its binding signal is 12100 fluorescence intensity (a.u.).

**Q.** With “AAAATATAATAGATAACTAGATATATCGTTTTGCTTATGTCGGAGTCACCTAGTGCAG” as the sequence, how does the binding signal read?
**A.** Its binding signal is 5590 fluorescence intensity (a.u.).

**Q.** “TCTAATATAGAAAATTTACGATGATATGGATCCAATCTATCGGAGTCACCTAGTGCAG” was tested. Which binding signal did it give?
**A.** Its binding signal is 3820 fluorescence intensity (a.u.).

**Q.** How did the binding signal turn out when “CGAGGAATTCAGTGATGGACTGATAGAAGTTCGGTCTGACCGGAGTCACCTAGTGCAG” was run?
**A.** The binding signal was 3280 fluorescence intensity (a.u.).

**Q.** Which binding signal does the source give for “ACACCATGATTTGACAATGTGGTGATACAGTAAACATTTACGGAGTCACCTAGTGCAG” here?
**A.** The binding signal was 9110 fluorescence intensity (a.u.).

**Q.** For “CCTAATAATTAATTAATGATGCACGAGGGATTATCCAACTCGGAGTCACCTAGTGCAG”, which binding signal is on record?
**A.** The binding signal was 53200 fluorescence intensity (a.u.).

**Q.** How did the binding signal turn out when “ACTATAATCAAATCATCCACCATATCGTCGACCGACCAACCGGAGTCACCTAGTGCAG” was run?
**A.** The binding signal was 5400 fluorescence intensity (a.u.).

**Q.** How did the binding signal turn out when “TTCATCCATCTATTATAAAACTGAAACTCTGATGAGTTTTCGGAGTCACCTAGTGCAG” was run?
**A.** Its binding signal is 3180 fluorescence intensity (a.u.).

**Q.** With “GTATGAATAAATTATTAGATTAGCTATAGATTAATTGAAGCGGAGTCACCTAGTGCAG” as the sequence, how does the binding signal read?
**A.** The binding signal was 16400 fluorescence intensity (a.u.).

**Q.** For “GACAAGCGTGATTAGTTCCAAATTCCAAGGCATTTTCTGACGGAGTCACCTAGTGCAG”, which binding signal is on record?
**A.** Its binding signal is 13400 fluorescence intensity (a.u.).

**Q.** With “ATAATAATTCTGAATTAACAAATGGCGCAAATTGACATGGCGGAGTCACCTAGTGCAG” as the sequence, how does the binding signal read?
**A.** The binding signal was 23900 fluorescence intensity (a.u.).

**Q.** For “TAAGATTGAGGAGATTTGTTACTCCCGTAGTCAGGGGCCGCGGAGTCACCTAGTGCAG”, which binding signal is on record?
**A.** The binding signal was 19300 fluorescence intensity (a.u.).

**Q.** For “ATTAACTGTTTTGTTTGGTTGGAAGAGATGGGAATTTTGGCGGAGTCACCTAGTGCAG”, which binding signal is on record?
**A.** The binding signal was 5740 fluorescence intensity (a.u.).

**Q.** For “AACCATAATTTAATATGTGTGTGAGACTTCTCTTTCCCGGCGGAGTCACCTAGTGCAG”, which binding signal is on record?
**A.** Its binding signal is 20700 fluorescence intensity (a.u.).

From PMC7819943, “Rice protein-binding microarrays: a tool to detect cis-acting elements near promoter regions in rice”
